Data on 59 compounds can be found in PubChem BioAssay AID1963576 (National Center for Advancing Translational Sciences (NCATS), 2024).

Screen size: about 46,000 compounds; about 60 (0.1%) were called active. About 3% were inconclusive and are not listed. Calls follow the shape of the dose curve; as a rule, active = well fitted inhibition curve with a large enough effect; inconclusive = small, poorly fitted or top-dose-only effect; inactive = no such curve, though single readings can be large or run the other way. The list shows a part of the results. Residues, ends and D or L forms follow the SMILES beside them. *: point of attachment. Cbz = O=C(OCc1ccccc1)*

The assay can be described thus: Primary qHTS assay for Inhibitors of ovarian cancer metastasis using an organotypic tumor microenvironment (TME) model. Also: nearly all actives have a fitted effect of over 65% in size.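 As to activity change, negative = inhibition: plate controls were DMSO wells for no effect and tomatine positive control wells for full effect.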 The note with it: SKOV3ip1-GFP adhesion/invasion on 3D omental model, fluorescence; series mostly up to 45.8 µM; activity change, negative = inhibition: at the top concentration. The procedure, abridged:
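Primary human omental fibroblast/mesothelial 3D culture pre-formed 48 h. SKOV3ip1-GFP cells added with compounds (0.36-46 umol/L), incubated 2 h RT/16 h 37 C, fixed; GFP cells quantified at 488/509 nm.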
Background: Quantitative high-throughput screening tests each substance at several concentrations.
As for `Cc1ccc2c(=O)c(C(=O)c3cccc(Cl)c3)cn(CC(=O)NCc3ccccc3)c2n1`, the “activity change, negative = inhibition” value was inactive: 1.8%.

For the compound `COc1cccc(OCCn2c(-c3ccc(Cl)cc3)nc3ccccc3c2=O)c1`, the “activity change, negative = inhibition” value was inactive: 2.67%. As for `CCC(CC)C(=O)Nc1cccc(-c2cn3cccnc3n2)c1`, the “activity change, negative = inhibition” value was inactive: 2.42%.

For the compound `COc1cccc(Cn2c(=O)n(-c3cc(C)cc(C)c3)c(=O)c3oc4ccccc4c32)c1`, the “activity change, negative = inhibition” value was inactive: -6.77%.

As to `CC1=C(C(=O)Nc2cccc(F)c2)C2(CCCCCC2)OC1=O`, the compound was called inactive. On to `COCCCNc1oc(-c2ccc(COc3ccccc3C)o2)nc1C#N`, for which the “activity change, negative = inhibition” value is inactive: 0.431%. Regarding `COc1cc(OC)c(NC(=O)Cn2c(=O)nc(-c3ccccc3)c3ccccc32)cc1Cl`, the call was inactive. Turning to `Cc1ccc(N2CCN(S(=O)(=O)c3nnc(NC(=O)c4cccc(F)c4)s3)CC2)cc1`, the “activity change, negative = inhibition” value is inactive: 2.41%. Same read-out and setting: then `CCc1ccc(C2=CC(c3cccc(OC)c3OC)n3c(nc4ccccc43)N2)cc1` (centres undefined), with inactive: 13.3%.

Consider `COc1ccc(CCNC(=O)Cn2c(=O)cc(C(F)(F)F)c3c(C)nn(C)c32)c(OC)c1`, for which the “activity change, negative = inhibition” value was inactive: 3.62%.

Take `CCOc1cc(CNC(=O)c2cc(-c3ccc(Cl)s3)nc3ccccc23)ccc1OC`: the “activity change, negative = inhibition” value is inactive: -6.59%.

For the compound `COc1ccc(NC(=O)CNC(=O)Cn2ccc3ccccc3c2=O)c(OC)c1`, the “activity change, negative = inhibition” value is inactive: 3.38%. In the case of `CCCN1CCN(CCCNC(=O)c2cc3c(=O)[nH]c4ccccc4c3s2)CC1`, the “activity change, negative = inhibition” value was inactive: -12%. Regarding `O=C(Cn1cccc1C(=O)c1ccccc1)NCc1ccc(Cl)cc1`, the “activity change, negative = inhibition” value was inactive: 6.8%. For `CC(C)C[C@@H](C=O)NC(=O)[C@H](CC(C)C)NC(=O)[C@H](CC(C)C)NC(=O)OCc1ccccc1` (Cbz-Leu-Leu-Leu-aldehyde), the “activity change, negative = inhibition” value was inactive: -23.7%. Take `CN(C(=O)CSc1nc2ccc(NC(=O)c3ccco3)cc2s1)c1ccccc1`: the call was inactive.

For the compound `Cc1cc(C)c2c(NC(=O)c3ccccc3Cl)c(C(=O)Nc3ccc(C)c(C)c3)sc2n1`, the “activity change, negative = inhibition” value is inactive: 3.19%. With `CCc1ccccc1NC(=O)c1nnn(CC(=O)Nc2c(C)cc(C)cc2C)c1N`, the result was inactive. As for `Cc1ccc(CNC(=O)c2cnc(N3CCCC3)nc2C)cc1`, the “activity change, negative = inhibition” value was inactive: 5.36%. Same read-out and setting: then `C[C@@H]1[C@H](C)CC[C@]2(C(=O)O)CC[C@]3(C)C(=CC[C@@H]4[C@@]5(C)C[C@@H](O)[C@H](O)[C@@](C)(CO)[C@H]5CC[C@]43C)[C@@H]12`, with inactive: -3.83%; and `CCC1=Nc2cc(C(=O)NC3CCCC3)ccc2Sc2ccc(Cl)cc21`, with inactive: 1.95%; and `COC(=O)c1ccc(NC(=O)C(C)N2Cc3ccccc3C2=O)cc1` (centres undefined), with inactive: 7.2%. On to `COc1ccc(N2CCN(C(=O)c3c(C)oc4ncn(CC(C)C)c(=O)c34)CC2)cc1`, for which the “activity change, negative = inhibition” value was inactive: -0.554%. Regarding `Cc1ccc2nc3sc(C(=O)Nc4ccc(F)cc4)cc3cc2c1`, the “activity change, negative = inhibition” value was inactive: -8.46%. Regarding `CCOC(=O)c1cc(S(=O)(=O)N2CCN(c3cccc(C)c3)C(C)C2)[nH]n1` (centres undefined), the “activity change, negative = inhibition” value was inactive: 4.29%.

On to `CCn1cc(C(=O)N2CCN(c3ccccc3OC)CC2)c2cc(OC)c(OC)cc2c1=O`, for which the “activity change, negative = inhibition” value was inactive: 13.5%. For `CCOc1cccc2sc(=NC(=O)c3ccc(S(=O)(=O)N4CCOCC4)cc3)n(C)c12`, the call was inactive. On the same count and under the same terms, then `CCc1ccc(OCC(=O)Nc2c(C(=O)c3ccc(Br)cc3)oc3ccccc23)cc1`, with “inactive”.

For `CCC(Oc1ccccc1)C(=O)Nc1nnc(S(=O)(=O)N2CCCC2)s1` (centres undefined), the “activity change, negative = inhibition” value is inactive: 2.31%. As for `OC[C@H]1O[C@@H](n2cnc3c2NC=NC[C@@H]3O)C[C@H]1O`, the “activity change, negative = inhibition” value was inactive: 4.68%.

As for `CCc1ccc(NC(=O)c2ccc(CNS(=O)(=O)c3ccc4c(c3)C(C)(C)C(=O)N4C)cc2)cc1`, the outcome was inactive. Turning to `CCOc1ccc(CCNc2ncnc3onc(C)c23)cc1OCC`, the “activity change, negative = inhibition” value was inactive: 6.53%. Turning to `CCOC(=O)c1c(NC(=O)C(C)Oc2ccccc2F)sc(C(C)=O)c1C` (centres undefined), the “activity change, negative = inhibition” value was inactive: 0.664%. The same measure, in the same setting: then `COc1ccc(CCNC(=O)CCCCn2c(=O)c3ccccc3n(Cc3cccc(C)c3)c2=O)cc1OC`, with inactive: -10.6%; and `CCOC(=O)c1cnc2c(OC)cccc2c1N1CCN(c2ccccc2F)CC1`, with inactive: -1.04%; and `COc1ccc(CNC(=O)c2ccc(-c3nc(CSc4ccccc4)c(C)o3)cc2)cc1`, with inactive: -13.2%. As to `CCCCN(CCCC)CCn1cnc2c([nH]c3ccc(OC)cc32)c1=O`, the outcome was inactive. For `COc1ccc(NC(=O)c2oc3ccccc3c2NC(=O)c2cc(=O)c3ccccc3o2)cc1`, the “activity change, negative = inhibition” value was inactive: 2.46%. As to `COc1ccc(C(=O)Nc2ccc3c(c2)CCCN3S(=O)(=O)c2ccc(C)cc2)cc1`, the “activity change, negative = inhibition” value was inactive: -11.2%.

For the compound `Cc1ccc2c(c1)-c1nc(-c3ccccc3)cc(-c3ccccc3)c1CO2`, the call was inactive. As for `CCc1ccc(-c2nc(CN3CCCC(C(=O)NCc4ccccc4Cl)C3)c(C)o2)cc1` (centres undefined), the “activity change, negative = inhibition” value was inactive: 8.2%. Consider `O=C(NC1CCCC1)c1ccc2c(c1)N(Cc1c(F)cccc1Cl)C(=O)c1ccccc1S2`, for which the result was inactive. For the compound `COc1cc(C(=O)N(CCCN(C)C)c2nc3c(OC)cccc3s2)cc(OC)c1OC`, the “activity change, negative = inhibition” value is inactive: 0.0491%. Still for that read-out and setting: to `O=C(NCCc1csc(-c2cccc(F)c2)n1)c1ccco1` belongs inactive: 2.63%; to `COc1cc(-c2cc3n(C)c(C)c(CCC(=O)NC4CCC(C)CC4)c(=O)n3n2)cc(OC)c1OC` (centres undefined), inactive: -9.24%. Regarding `CCOc1ccc(N(CC)S(=O)(=O)N2CCCC(C(=O)NCc3ccccc3OCC)C2)cc1` (centres undefined), the outcome was inactive. For `Cc1nn2c(=O)cc(COC(=O)c3ccccc3NC(=O)C3CCCCC3)nc2s1`, the “activity change, negative = inhibition” value was inactive: 0.0512%. For `COc1ccc2c(c1)CC(C(=O)Nc1c(C)cc(C)cc1C)CO2` (centres undefined), the “activity change, negative = inhibition” value is inactive: -7.56%. Still for that read-out and setting: then `NS(=O)(=O)c1ccc(CCNC(=O)Cn2c(=O)c3cccn3c3ccc(F)cc32)cc1`, with inactive: -1.14%; and `NC(=O)COc1ccc(-c2noc(COc3ccc(Cl)cc3)n2)cc1`, with inactive: 14.2%. With `O=C(CSc1nc2c([nH]c3ccccc32)c(=O)n1-c1ccccc1)Nc1ccccc1C(F)(F)F`, the compound was classed as inactive. With `COc1cccc2c1Oc1ncccc1N(C(=O)CCC(=O)NCc1ccc(OC(C)C)cc1)C2`, the “activity change, negative = inhibition” value was inactive: 9.53%. Take `Cc1nn(CC(=O)NC(C)c2ccccc2)c(=O)c2cc3occc3n12` (centres undefined): the outcome was inactive. Consider `COc1cccc(NC(=O)CSC2=Nc3ccccc3C3=NC(CCC(=O)NC4CCCCC4)C(=O)N23)c1` (centres undefined), for which the “activity change, negative = inhibition” value was inactive: 8.71%. As for `COc1ccc(OC)c(NC(=O)CCCOc2cc(=O)n(C)c3ccccc23)c1`, the “activity change, negative = inhibition” value was inactive: -4.51%. Same read-out and setting: to `Cc1ccc(-n2c3c(c(=O)[nH]c2=O)C(NC(=O)C(C)(C)C)(C(F)(F)F)C(=O)N3)cc1` (centres undefined) belongs inactive: 2.27%; to `O=C(Nc1cccc(F)c1)C1CCN(c2nc3ccccc3nc2C(F)(F)F)CC1`, inactive: 63.9%. As for `CCc1ccccc1-n1nnc(-c2nc(-c3ccccc3F)no2)c1C`, the outcome was inactive. Consider `Cn1c(=O)n(C)c2cc(NS(=O)(=O)c3ccc(Cl)cc3)c(NCc3ccccc3)cc21`, for which the “activity change, negative = inhibition” value is inactive: -0.923%.
